Out of some 320,000 compounds screened, about 200 (0.062%) were called active. The inconclusive results got no clear call from the source; some entries with a clear call stand among them for comparison. The call rests on the fitted dose curve; in most records, active means well fitted activation curve with a large enough effect; inconclusive means small, poorly fitted or top-dose-only effect; inactive means no such curve, though single readings can be large or run the other way. Potencies of inconclusive entries are left out as doubtful fits.
assay: qHTS assay for re-activators of p53 using a Luc reporter; details: H1299 p53-A138V BP100-luciferase reporter, luminescence, 24 h; series mostly up to 92.2 µM; further: nearly all actives have a fitted effect of over 45% in size
Summary of the method: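 H1299 (p53-null), stable ts p53-A138V + BP100-Luc; 1000 cells/well, Opti-MEM/10% FBS; cpd 4 pt, 1:5; 24 h, 37 deg C, 5% CO2; detection reagent 10 min RT; luminescence.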
Potency means the concentration at half of the fitted maximal effect; tags describe the fitted curve by direction and shape.

Row | Structure (SMILES) | Potency
1 | Cc1cccc(-n2c(=O)[nH]c3c(C(N)=O)nc(CC(C)C)nc32)c1 | inactive
2 | COc1ccccc1NC(=O)NCCc1c[nH]c2ccccc12 | inactive
3 | CCOc1cccc2sc(N(CCCN(C)C)C(=O)c3ccc(S(=O)(=O)N4CCCCCC4)cc3)nc12 | inconclusive [activator, partial curve, poor fit]
4 | CC1CCc2c(C(=O)NCc3ccccn3)csc2C1 (configuration not stated) | inconclusive [activator, full curve, poor fit]
5 | Cc1cc(C)c2oc(-c3cccc(N)c3)nc2c1 | inconclusive [activator, partial curve, poor fit]
6 | C/C(=N\NC(=O)c1ccc(C)cc1C)c1ccc2c(c1)Nc1ccccc1S2 | inconclusive [activator, full curve, poor fit]
7 | Clc1ccc2c(c1)[C@H]1OCC[C@H]1[C@@H](c1ccco1)N2 | inconclusive [activator, partial curve, poor fit]
8 | CN(CC(=O)Nc1c(Cl)cccc1Cl)C(=O)CNC(=O)c1ccc2c(c1)OCO2 | inactive
9 | Cc1cccc(Nc2nn3c(=O)c4ccccc4nc3s2)c1 | inconclusive [activator, partial curve, poor fit]
10 | Cc1cc(Cl)ccc1OCC(=O)NNC(=O)c1ccco1 | inactive
11 | O=C(CSc1nc2ccccc2o1)N/N=C/c1ccccc1 | inconclusive [activator, full curve, poor fit]
12 | COc1cccc(NC(=O)c2cccc(N3C(=O)C4CCC(C)CC4C3=O)c2)c1 (configuration not stated) | inactive
13 | CC1=CC(C)(C)n2c(O)c(N=NC(N)=S)c3c(C)c(C)cc1c32 | inactive
14 | Cc1cc2c(c(=O)o1)C1(C(=O)N(CC(=O)O)c3ccccc31)C(C#N)=C(N)O2 (configuration not stated) | inactive
15 | Cc1cccc(Nc2cc(C)c3c(O)cccc3n2)c1C | inconclusive [activator, full curve, poor fit]
16 | O=C(N/N=C/c1ccc2ncccc2c1)c1ccco1 | inactive
17 | Nc1[nH]ncc1N=Nc1ccc(Cl)cc1 | inactive
18 | CC(C)[C@@H](C(=O)N1CCCC1)N1C(=O)N2CCc3c([nH]c4ccccc34)[C@@]2(C)C1=O | inactive
19 | O=C(COC(=O)c1cccc(F)c1)NC(=O)NCc1ccccc1 | inactive
20 | Cc1ccccc1NC(=S)Nc1cccc2cnccc12 | inactive
21 | O=c1[nH]c2ccccc2c2nc3ccccn3c12 | inconclusive [activator, partial curve, poor fit]
22 | CC(=O)Nc1ccc(NC(=O)CSc2ccc3nnc(-c4ccccn4)n3n2)cc1 | inactive
